# The supplement of paper PMC8728848
# The other results are listed elsewhere or left out.
# Legend:
# Experiment in all cases: glycan array binding signal (z-score within array); higher = stronger binding
# Conditions in all cases: glycan notation: IUPAC condensed, linker removed
# [1] = target: Gal(b1-4)GlcNAc(b1-3)Gal(b1-4)GlcNAc(b1-2)Man(a1-3)[Gal(b1-4)GlcNAc(b1-3)Gal(b1-4)GlcNAc(b1-2)Man(a1-6)]Man(b1-4)GlcNAc(b1-4)GlcNAc
# In short: (§1)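 The binding signal is a Z-score computed within each array. Data were drawn from 3228 arrays in the Consortium for Functional Glycomics database, restricted to those with a known protein sequence. Scores were averaged over arrays of the same protein sequence at different concentrations or buffers, and over linkers, and negative values can be taken as non-binding.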
# [2] = target: Gal(b1-4)GlcNAc(b1-3)Gal(b1-4)GlcNAc(b1-2)Man(a1-3)[Gal(b1-4)GlcNAc(b1-3)Gal(b1-4)GlcNAc(b1-2)Man(a1-6)]Man(b1-4)GlcNAc(b1-4)[Fuc(a1-6)]GlcNAc
# In short: as §1
# [3] = target: Gal(b1-4)GlcNAc(b1-3)Gal(b1-4)GlcNAc(b1-2)[Gal(b1-4)GlcNAc(b1-3)Gal(b1-4)GlcNAc(b1-6)]Man(a1-6)[Gal(b1-4)GlcNAc(b1-3)Gal(b1-4)GlcNAc(b1-2)Man(a1-3)]Man(b1-4)GlcNAc(b1-4)GlcNAc
# In short: as §1
# [4] = target: Gal(b1-4)GlcNAc(b1-3)Gal(b1-4)GlcNAc(b1-2)[Gal(b1-4)GlcNAc(b1-3)Gal(b1-4)GlcNAc(b1-6)]Man(a1-6)[Gal(b1-4)GlcNAc(b1-3)Gal(b1-4)GlcNAc(b1-2)Man(a1-3)]Man(b1-4)GlcNAc(b1-4)[Fuc(a1-6)]GlcNAc
# In short: as §1
# [5] = target: Gal(b1-4)GlcNAc(b1-3)Gal(b1-4)GlcNAc(b1-3)Gal(b1-4)GlcNAc
# In short: as §1
# [6] = target: Gal(b1-4)GlcNAc(b1-3)Gal(b1-4)GlcNAc(b1-3)Gal(b1-4)GlcNAc(b1-2)Man(a1-3)[Gal(b1-4)GlcNAc(b1-3)Gal(b1-4)GlcNAc(b1-3)Gal(b1-4)GlcNAc(b1-2)Man(a1-6)]Man(b1-4)GlcNAc(b1-4)GlcNAc
# In short: as §1
# [7] = target: Gal(b1-4)GlcNAc(b1-3)Gal(b1-4)GlcNAc(b1-3)Gal(b1-4)GlcNAc(b1-2)Man(a1-3)[Gal(b1-4)GlcNAc(b1-3)Gal(b1-4)GlcNAc(b1-3)Gal(b1-4)GlcNAc(b1-2)Man(a1-6)]Man(b1-4)GlcNAc(b1-4)[Fuc(a1-6)]GlcNAc
# In short: as §1
# [8] = target: Gal(b1-4)GlcNAc(b1-3)Gal(b1-4)GlcNAc(b1-3)Gal(b1-4)GlcNAc(b1-2)[Gal(b1-4)GlcNAc(b1-3)Gal(b1-4)GlcNAc(b1-3)Gal(b1-4)GlcNAc(b1-6)]Man(a1-6)[Gal(b1-4)GlcNAc(b1-3)Gal(b1-4)GlcNAc(b1-3)Gal(b1-4)GlcNAc(b1-2)Man(a1-3)]Man(b1-4)GlcNAc(b1-4)[Fuc(a1-6)]GlcNAc
# In short: as §1
# [9] = target: Gal(b1-4)GlcNAc(b1-3)Gal(b1-4)GlcNAc(b1-3)Gal(b1-4)GlcNAc(b1-3)Gal(b1-4)GlcNAc(b1-2)Man(a1-3)[Gal(b1-4)GlcNAc(b1-3)Gal(b1-4)GlcNAc(b1-3)Gal(b1-4)GlcNAc(b1-3)Gal(b1-4)GlcNAc(b1-2)Man(a1-6)]Man(b1-4)GlcNAc(b1-4)GlcNAc
# In short: as §1
# [10] = target: Gal(b1-4)GlcNAc(b1-3)Gal(b1-4)GlcNAc(b1-3)Gal(b1-4)GlcNAc(b1-3)Gal(b1-4)GlcNAc(b1-2)Man(a1-3)[Gal(b1-4)GlcNAc(b1-3)Gal(b1-4)GlcNAc(b1-3)Gal(b1-4)GlcNAc(b1-3)Gal(b1-4)GlcNAc(b1-2)Man(a1-6)]Man(b1-4)GlcNAc(b1-4)[Fuc(a1-6)]GlcNAc
# In short: as §1
# [11] = target: Gal(b1-4)GlcNAc(b1-3)Gal(b1-4)GlcNAc(b1-3)Gal(b1-4)GlcNAc(b1-3)Gal(b1-4)GlcNAc(b1-2)[Gal(b1-4)GlcNAc(b1-3)Gal(b1-4)GlcNAc(b1-3)Gal(b1-4)GlcNAc(b1-3)Gal(b1-4)GlcNAc(b1-6)]Man(a1-6)[Gal(b1-4)GlcNAc(b1-3)Gal(b1-4)GlcNAc(b1-3)Gal(b1-4)GlcNAc(b1-3)Gal(b1-4)GlcNAc(b1-2)Man(a1-3)]Man(b1-4)GlcNAc(b1-4)[Fuc(a1-6)]GlcNAc
# In short: as §1
# [12] = target: Gal(b1-4)GlcNAc(b1-3)Gal(b1-4)GlcNAc(b1-3)Gal(b1-4)GlcNAc(b1-3)Gal(b1-4)GlcNAc(b1-3)Gal(b1-4)GlcNAc(b1-2)Man(a1-3)[Gal(b1-4)GlcNAc(b1-3)Gal(b1-4)GlcNAc(b1-3)Gal(b1-4)GlcNAc(b1-3)Gal(b1-4)GlcNAc(b1-3)Gal(b1-4)GlcNAc(b1-2)Man(a1-6)]Man(b1-4)GlcNAc(b1-4)GlcNAc
# In short: as §1
# [13] = target: Gal(b1-4)GlcNAc(b1-3)Gal(b1-4)GlcNAc(b1-3)Gal(b1-4)GlcNAc(b1-3)Gal(b1-4)GlcNAc(b1-3)Gal(b1-4)GlcNAc(b1-2)Man(a1-3)[Gal(b1-4)GlcNAc(b1-3)Gal(b1-4)GlcNAc(b1-3)Gal(b1-4)GlcNAc(b1-3)Gal(b1-4)GlcNAc(b1-3)Gal(b1-4)GlcNAc(b1-2)Man(a1-6)]Man(b1-4)GlcNAc(b1-4)[Fuc(a1-6)]GlcNAc
# In short: as §1
# [14] = target: Gal(b1-4)GlcNAc(b1-3)Gal(b1-4)GlcNAc(b1-3)Gal(b1-4)GlcNAc(b1-3)Gal(b1-4)GlcNAc(b1-3)Gal(b1-4)GlcNAc(b1-2)[Gal(b1-4)GlcNAc(b1-3)Gal(b1-4)GlcNAc(b1-3)Gal(b1-4)GlcNAc(b1-3)Gal(b1-4)GlcNAc(b1-3)Gal(b1-4)GlcNAc(b1-6)]Man(a1-6)[Gal(b1-4)GlcNAc(b1-3)Gal(b1-4)GlcNAc(b1-3)Gal(b1-4)GlcNAc(b1-3)Gal(b1-4)GlcNAc(b1-3)Gal(b1-4)GlcNAc(b1-2)Man(a1-3)]Man(b1-4)GlcNAc(b1-4)[Fuc(a1-6)]GlcNAc
# In short: as §1
# [15] = target: Gal(b1-4)GlcNAc(b1-3)Gal(b1-4)GlcNAc(b1-3)Gal(b1-4)GlcNAc(b1-3)Gal(b1-4)GlcNAc(b1-3)Gal(b1-4)GlcNAc(b1-3)Gal(b1-4)GlcNAc(b1-2)Man(a1-3)[Gal(b1-4)GlcNAc(b1-3)Gal(b1-4)GlcNAc(b1-3)Gal(b1-4)GlcNAc(b1-3)Gal(b1-4)GlcNAc(b1-3)Gal(b1-4)GlcNAc(b1-3)Gal(b1-4)GlcNAc(b1-2)Man(a1-6)]Man(b1-4)GlcNAc(b1-4)GlcNAc
# In short: as §1
# [16] = target: Gal(b1-4)GlcNAc(b1-3)Gal(b1-4)GlcNAc(b1-3)GalNAc
# In short: as §1
# [17] = target: Gal(b1-4)GlcNAc(b1-3)Gal(b1-4)GlcNAc(b1-3)[Gal(b1-4)GlcNAc(b1-3)Gal(b1-4)GlcNAc(b1-6)]GalNAc
# In short: as §1
# [18] = target: Gal(b1-4)GlcNAc(b1-3)Gal(b1-4)GlcNAc(b1-6)[Gal(b1-3)]GalNAc
# In short: as §1
# [19] = target: Gal(b1-4)GlcNAc(b1-3)Gal(b1-4)[Fuc(a1-3)]GlcNAc(b1-3)Gal(b1-4)[Fuc(a1-3)]GlcNAc
# In short: as §1
# [20] = target: Gal(b1-4)GlcNAc(b1-3)GalNAc
# In short: as §1
# [21] = target: Gal(b1-4)GlcNAc(b1-3)[Fuc(a1-3)GlcNAc(b1-6)]Gal(b1-4)Glc
# In short: as §1
# [22] = target: Gal(b1-4)GlcNAc(b1-3)[Gal(b1-4)GlcNAc(b1-6)]Gal(b1-4)GlcNAc
# In short: as §1
binder,measurement,setting,value
"UDA (Urtica dioica), P11218 (protein) MMMRFLSAVVIMSSAMAVGLVSAQRCGSQGGGGTCPALWCCSIWGWCGDSEPYCGRTCENKCWSGERSDHRCGAAVGNPPCGQDRCCSVHGWCGGGNDYCSGSKCQYRCSSSVRGPRVALSGNSTANSIGNVVVTEPLFDQMFSHRKDCPSQGFYSYHSFLVAAESFPAFGTIGDVATRKREVAAFLAHISQATSGERSDVENPHAWGLCHINTTTVTENDFCTSSDWPCAAGKKYSPRGPIQLTHNFNYGLAGQAIGEDLIQNPDLVEKDPIISFKTALWFWMSQHDNKPSCHDIVLNANSAANRIPNKGVIGNIISRAFGHDDFAVRSSSIGFYKRYCDMLGVSYGHDLKYWFDNTPSSEFQRIQMRVAA",glycan array binding signal (z-score),[1],-0.033
same,glycan array binding signal (z-score),[2],0.015
same,glycan array binding signal (z-score),[3],-0.126
same,glycan array binding signal (z-score),[4],-0.147
same,glycan array binding signal (z-score),[5],0.075
same,glycan array binding signal (z-score),[6],0.012
same,glycan array binding signal (z-score),[7],0.008
same,glycan array binding signal (z-score),[8],-0.14
same,glycan array binding signal (z-score),[9],0.01
same,glycan array binding signal (z-score),[10],0.114
same,glycan array binding signal (z-score),[11],-0.041
same,glycan array binding signal (z-score),[12],0.34
same,glycan array binding signal (z-score),[13],1.52
same,glycan array binding signal (z-score),[14],0.237
same,glycan array binding signal (z-score),[15],0.731
same,glycan array binding signal (z-score),[16],-0.132
same,glycan array binding signal (z-score),[17],-0.112
same,glycan array binding signal (z-score),[18],-0.119
same,glycan array binding signal (z-score),[19],-0.19
same,glycan array binding signal (z-score),[20],-0.177
same,glycan array binding signal (z-score),[21],-0.173
same,glycan array binding signal (z-score),[22],0.029
